Among all 420,000 compounds or so, about 50,000 (12%) were called active. Inconclusive means that the source gave no clear call. Such entries were picked first, then a sample of the others. Calls come from the whole dose curve; as a rule, active = well fitted inhibition curve with a large enough effect; inconclusive = small, poorly fitted or top-dose-only effect; inactive = flat fitted curve, though single readings scatter. Potencies of inconclusive entries are left out as doubtful fits.
assay: qHTS for Inhibitors of human tyrosyl-DNA phosphodiesterase 1 (TDP1): qHTS in cells in presence of CPT; conditions: chicken DT40 Tdp1-/-;hTDP1 cells + 20 nM CPT, ATP luminescence, 48 h; series mostly up to 46.2 µM; note: nearly all actives have a fitted effect of over 55% in size
Method in brief: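 Cell growth measured by CellTiter-Glo luminescence after a minimum 48 h, 37 C compound exposure with 20 nM CPT in Tdp1-knockout DT40 cells stably expressing hTDP1, seeded 400/well; qHTS titration format.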
Potency is the fitted concentration of half-maximal effect; tags give direction and shape of the fitted curve.

SMILES | Potency
O=C(Nc1ccccc1Cl)Nc1cccc2cccnc12 | inactive
CCS(=O)(=O)N1CCN=C1SCc1ccccc1 | inactive
COc1cccc2cc(-c3nnc(SCC(=O)Nc4nc(C)cs4)n3C)oc12 | inconclusive [inhibitor, single point]
O=C(CSc1nnc(-c2cccc(F)c2)c(-c2cccc(F)c2)n1)NC1CCCCC1 | inconclusive [inhibitor, single point]
O=C(NCc1ccccc1)c1ccc2nccnc2c1 | inconclusive [inhibitor, single point]
COc1cccc2c(=O)c3c(cnn3C)n(C)c12 | inactive
COc1ccc(C2C(C(C)=O)=C(O)C(=O)N2c2nccs2)cc1OC (configuration not stated) | inactive
Cn1c(=O)c2c(nc(N/N=C/c3cccs3)n2Cc2ccc(Br)cc2)n(C)c1=O | active: 20.6 µM
Cc1ccc(CCNC(=O)c2ccc3nc4ccc(Cl)cc4c(=O)n3c2)cc1 | inconclusive [inhibitor, single point]
O=c1[nH]cnc2c1c(-c1ccccc1)cn2-c1ccccc1 | inconclusive [inhibitor, single point]
COc1ccc(-n2nc3c(N4CCC(C(=O)NCCc5ccccc5)CC4)nnc(C)c3c2C)cc1 | inconclusive [inhibitor, single point]
COc1cccc(CSc2nc(-c3ccccc3F)nc3c2Cc2c(CO)cnc(C)c2O3)c1 | inconclusive [inhibitor, single point]
CCCCCCc1nc(C(N)=O)c2[nH]c(=O)n(-c3ccc(OCC)cc3)c2n1 | inconclusive [inhibitor, single point]
Cc1ccc(F)cc1C(=O)N1CCOCC1c1cc(C(=O)NCc2ccccc2)no1 (configuration not stated) | inactive
CCn1c(-c2cc3ccccc3cc2O)n[nH]c1=S | inactive
NS(=O)(=O)c1cc(C(=O)OCC(=O)N2CCOCC2)ccc1Cl | inactive
CCc1nc2ccc(C(=O)NCCC(C)C)cn2c1N(C)Cc1ccc(OC)cc1 | inconclusive [inhibitor, single point]
COc1ccc(C(=O)NC2CCCc3c2cnn3-c2ccc(C)c(C)c2)c(OC)c1OC (configuration not stated) | inconclusive [inhibitor, partial curve]
CC(C)c1ccc(N(C(=O)CNC(=O)c2ccco2)C(C(=O)NC2CCCC2)c2ccncc2)cc1 (configuration not stated) | inactive
CCc1cc2c(SCC(=O)NC(=O)c3cccn3C)ncnc2s1 | inactive
CSc1nsc(/C=C/Nc2cccc(Cl)c2)c1C#N | inconclusive [inhibitor, single point]
COc1ccccc1NC(=O)c1cc2c(cc1Cl)N1CCCCCC1=NS2(=O)=O | inactive
COc1ccccc1C(=O)N/N=C(\C)c1ccc(NC(=O)Cc2ccccc2)cc1 | inconclusive [inhibitor, single point]
O=C(COC(=O)c1ccc(Cl)nc1)Nc1cc(S(=O)(=O)N2CCOCC2)ccc1Cl | inconclusive [inhibitor, single point]

SMILES | Potency
CCOc1ccccc1NC(=O)C(NCC1CCCCC1)c1ccccc1 (configuration not stated) | inconclusive [inhibitor, single point]
CC(=O)Oc1ccc(Cn2c(C)c(C(=O)N(C)Cc3ccc(F)cc3)sc2=O)cc1 | inconclusive [inhibitor, single point]
CC(C)CCNC(=O)c1ccc2c(SCC(=O)O)c3c(nc2c1)CCCC3 | inactive
CCOC(=O)C1=C(C)NC(=O)NC1c1ccc(OC)c(CN2CCOCC2)c1 (configuration not stated) | inactive
CC(C)(C)c1ccc(C(=O)N(Cc2ccc(F)cc2)Cc2ccco2)cc1 | inconclusive [inhibitor, single point]
Cc1ccc(-c2nnc(Nc3ccccc3)c3ccccc23)cc1S(=O)(=O)N1CCN(C)CC1 | inconclusive [inhibitor, single point]
COCCNc1nc2cc(-c3ccccc3OC)sc2c(=O)n1C | active: 18.4 µM
Cc1cc(/C=N/NC(=O)C(O)(c2ccccc2)c2ccccc2)c(C)n1-c1ccccc1 | inconclusive [inhibitor, single point]
CCOC(=O)c1c(NC(=O)COc2ccccc2Br)sc2c1CCCCC2 | inconclusive [inhibitor, single point]
CCN1CCN(c2ccc(S(=O)(=O)N3CCOCC3)cc2NC(=O)c2cc(F)c(F)c(F)c2F)CC1 | inconclusive [inhibitor, single point]
CCOc1ccc(C2=NNC(c3cccs3)=Nc3ccc(OC)cc32)cc1OCC | inconclusive [inhibitor, single point]
O=C(c1cccc(S(=O)(=O)N2CCc3ccccc3C2)c1)N1CCN(c2ccccc2)CC1 | inconclusive [inhibitor, single point]
CC(C)C(=O)NC(c1ccc(N(C)C)cc1)c1ccc2cccnc2c1O (configuration not stated) | active: 3.98 µM
COc1cc(Cl)c(C)cc1NC(=O)c1cnn(-c2ccc(F)cc2F)c1C1CCN(C(=O)OC(C)(C)C)CC1 | inconclusive [inhibitor, single point]
COc1ccc(NC(=S)N2CCNC(=O)C2CC(=O)Nc2ccc(C)cc2)cc1 (configuration not stated) | inactive
COc1ccccc1N1CCN(c2ncnc3nc[nH]c23)CC1 | inconclusive [inhibitor, single point]
CCCCCn1nnnc1-c1nc2cc3ccccc3cc2[nH]c1=O | active: 4.11 µM
CN(CC(=O)Nc1ccccc1Cl)C(=O)COC(=O)Cc1c(F)cccc1Cl | inactive
CNS(=O)(=O)c1cccc(C(=O)NCC2(N3CCCCC3)CCCCC2)c1 | inactive
O=C(c1cccs1)N(Cc1cccnc1)c1nc2c(F)cc(F)cc2s1 | inconclusive [inhibitor, single point]
CN(C)c1ccc(C(=O)N2CCN(c3cc(C(F)(F)F)nc4ccccc34)CC2)cc1 | inconclusive [inhibitor, single point]
COc1ccc(/C=N/NC(=O)CCn2c3ccccc3c3ccccc32)cc1O | active: 1.46 µM
O=C(c1ccc(COc2ccc(Cl)cc2)cc1)N1CCCCC1 | inconclusive [inhibitor, single point]
CCN(CCCNC(=O)c1ccc(Sc2ccc(Cl)cc2)c(NC(C)=O)c1)c1ccccc1 | inconclusive [inhibitor, single point]

SMILES | Potency
CC1CCCN(C(=O)Nc2cccc(NC(=O)N3CCCC(C)C3C)c2)C1C (configuration not stated) | inconclusive [inhibitor, partial curve]
Cc1cccc(-n2cc[nH]c2=S)c1 | inactive
CCOC(=O)C(CC)n1cnc2c(nnn2-c2ccccc2)c1=O (configuration not stated) | inactive
COc1ccc(-c2nc(CSc3nnc(C)n4c3cc3oc(C)cc34)c(C)o2)cc1OC | inconclusive [inhibitor, partial curve]
Cc1ccc2nc3c(cc(C(=O)NCc4ccco4)c(=N)n3Cc3ccco3)c(=O)n2c1 | inconclusive [inhibitor, single point]
CCc1ccc(NC(=O)C(=O)NCc2ccccn2)cc1 | inconclusive [inhibitor, full curve, poor fit]
Cn1c(=O)c2[nH]c(CNCc3ccccc3Cl)nc2n(C)c1=O | active: 3.66 µM
Cc1ccccc1-c1cc(C(=O)NCc2ccc(OC(F)(F)F)cc2)n(CC2CC(c3cccnc3)=NO2)n1 (configuration not stated) | inconclusive [inhibitor, single point]
CC(=O)Nc1nn(C)c2nc3ccc(C)cc3cc12 | inactive
CCCCCCCCNC(=O)/C(C#N)=C/c1ccccc1[N+](=O)[O-] | inconclusive [inhibitor, single point]
O=C(CC(=O)N/N=C/c1c(F)cccc1Cl)NCCc1ccccc1 | inactive
O=C(c1ccccc1)N1CCN(Cc2ccccc2C(F)(F)F)CC1 | inactive
O=C(Nc1ccccc1)c1cccc(-c2nnc(-c3ccccc3)o2)c1 | inactive
Cc1ccc2cc(C)c3nnc(SCC(=O)N4CCN(C(=O)c5ccco5)CC4)n3c2c1 | inactive
CCN(CC)S(=O)(=O)c1nnc(NC(=O)c2ccc(Br)cc2)s1 | inconclusive [inhibitor, partial curve]
COc1ccccc1NC(NC(=O)c1ccco1)C(=O)c1ccccc1 (configuration not stated) | inconclusive [inhibitor, single point]
Cn1cc(S(=O)(=O)Nc2ccc(F)c(Cl)c2)c(=O)n(C)c1=O | inactive
CC(=O)NC(CC(=O)NCC(=O)Nc1ccc(F)c(F)c1)c1ccccc1 (configuration not stated) | inconclusive [inhibitor, full curve]
CCCOc1ccc(C2C(C(=O)c3ccc(C)o3)=C(O)C(=O)N2Cc2ccco2)cc1 (configuration not stated) | inconclusive [inhibitor, single point]
Cc1cc(NC(=O)Cn2c(=O)oc3cc(S(=O)(=O)N4CCCC4)ccc32)ccc1Br | active: 20.6 µM
CCCOC(=O)c1ccc(NC(=O)C(=O)NCC2CCCO2)cc1 (configuration not stated) | inconclusive [inhibitor, single point]
CN(C)Cc1c(C(=O)N/N=C/c2cccs2)nnn1-c1nonc1N | inactive
O=C(c1cc([N+](=O)[O-])ccc1N1CCOCC1)N1CCN(S(=O)(=O)c2cc(Cl)ccc2Cl)CC1 | inconclusive [inhibitor, single point]
Cc1cc(C)c(S(=O)(=O)N2CCCC(C(=O)N3CCOCC3)C2)c(C)c1 (configuration not stated) | inconclusive [inhibitor, single point]

— PubChem BioAssay AID686979 (National Center for Advancing Translational Sciences (NCATS), 2013)
